Data reported in PubChem BioAssay AID1347073 (National Center for Advancing Translational Sciences (NCATS), 2019).
About 200 (0.44%) of roughly 45,000 compounds were called active. Another 7% or so got no clear call; they are omitted. Calls follow the shape of the dose curve; as a rule, active = well fitted activation curve with a large enough effect; inconclusive = small, poorly fitted or top-dose-only effect; inactive = no such curve, though single readings can be large or run the other way. Some of the results follow.

Test: qHTS of TDP-43 Inhibitors: NCGC Sytravon Library Screen; also: 0% is about no effect; nearly all actives have a fitted effect of over 55% in size
Settings: yeast TDP-43 toxicity rescue, BacTiter-Glo growth, 24 h; at 46.1 µM (top of the series)
Summary of the method: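 TDP-43-expressing yeast, pregrown in raffinose, seeded at OD600 0.02 in galactose medium with compound for 24 hr at 30 deg C. Growth read by BacTiter-Glo luminescence, so rescue of toxicity appears as activation.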

SMILES | growth rescue (activation)
Cc1nn(Cc2ccccc2)c(C)c1C(=O)OCC(=O)NC1CCS(=O)(=O)C1 (stereo unspecified) | inactive: 11%
Cc1[nH]c2ccc(OC(F)(F)F)cc2c1CCNCc1ccc(Cl)cc1 | inactive: 2.98%
COc1cccc(C(=O)C2CCCN(Cc3ccon3)C2)c1 (stereo unspecified) | inactive: -2.36%
O=C(COc1ccccc1)Nc1ccc(Cl)cc1C(=O)c1ccccc1 | inactive: -8.92%
CCC(=NCCCn1ccnc1)c1c(O)n(-c2ccccc2)c(=O)[nH]c1=O | inactive: 15.2%
O=C1/C(=C/c2cccnc2)N2CCC1CC2 | inactive: 6.14%
Cn1cccc1/C=C1/C(=O)NC(=S)N(Cc2ccc(F)cc2)C1=O | inactive: 5.45%
C=CCn1c(O)c(C(CC)=Nc2cccc(C(=O)O)c2)c(=O)[nH]c1=O | inactive: -10.7%
CCCCC(=O)N/N=C/c1c(O)n(Cc2ccco2)c(=O)[nH]c1=O | inactive: 16.5%
CC(=O)OC1N=C(c2ccccc2Cl)c2cc(Br)ccc2NC1=O (stereo unspecified) | inactive: -7.37%
CCN1CCC2(CC1)NC(CO)(CO)CO2 | inactive: 24.8%
O=c1[nH]c(=S)n(-c2ccccc2)c(O)c1/C=N/N1CCCCC1c1cccnc1 (stereo unspecified) | inactive: 4.43%
COCCCNC(=O)c1c(NC(=O)c2ccco2)n(Cc2ccccc2)c2nc3ccccc3nc12 | inactive: -11.1%
C[C@]12C[C@H](O)[C@@H](O)CC1=CCC1C2CC[C@@]2(C)C1CC[C@@H]2O (stereo partly specified) | inactive: 0.646%
O=C(NC1CCCCC1)N1C[C@H]2C[C@@H](C1)c1cccc(=O)n1C2 | inactive: 9.65%
COc1ccc(NC(=O)C2C3CCC(O3)C2C(=O)O)c(OC)c1 (stereo unspecified) | inactive: 1.62%
O=C1CN=C(c2ccc(Cl)cc2)c2oc3ccccc3c2N1 | inactive: 8.13%
Cn1cc(C(=O)Cc2ccccc2)c2ccccc21 | inactive: 11.9%
O=c1[nH]c(O)c(N=Nc2ccc(S(=O)(=O)N3CCOCC3)cc2)c(=O)[nH]1 | inactive: -1.93%
CC1CCSP(=O)(Oc2ccccc2)O1 (stereo unspecified) | inactive: -7.5%
O=C(Cc1ccccc1F)N1CCN(CC(=O)N2CCCC2)CC1 | inactive: 15.2%
O=C1NC(=O)N(Cc2ccccc2)C(=O)/C1=C\N1CCCc2ccccc21 | inactive: -19%
N#Cc1ccc(NC(=O)CN2CCN(C(=O)c3cccs3)CC2)cc1Cl | inactive: 16.9%
C=CCn1c(O)c(C(CC)=Nc2cccc(C(F)(F)F)c2)c(=O)[nH]c1=O | inactive: -2.29%
COc1cc2[nH]c(=O)n(-c3ccc(C)cc3)c(=O)c2cc1OC | inactive: 7.49%
CCOC(=O)c1c(/N=C/C2C(=O)NC(=S)NC2=O)sc2c1CCC2 | inactive: -15.4%
